# Reference: the supplement of paper PMC4604168 (melanoma cell lines)
# The list shows a part of the results. Single values are uncertain, as repeats are few or missing.
# Test system: SkMel28
# Experiment: cell count relative to DMSO control; melanoma cells; higher = more viable cells
# Conditions: library dose: standard library concentration; 72 h
# 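Note: cells treated in 1,536-well plates, then fixed and DAPI-stained, with nuclei counted from automated high-throughput microscope images.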
row,Structure (SMILES),cell count
1,"CCCCCCCCc1ccc(CCC(N)(CO)CO)cc1 [fingolimod] + c1cc(-c2cnn3cc(-c4ccc(OCCN5CCCCC5)cc4)cnc23)ccn1 [Dorsomorphin] (first compound 10 µM, partner dose 2 µM)",1.2%
2,"CC(C)(C)c1cnc(CSc2cnc(NC(=O)C3CCNCC3)s2)o1 + NCC(=O)Nc1ccc(-n2nc(C(F)(F)F)cc2-c2ccc3c(ccc4ccccc43)c2)cc1 [OSU03012] (first compound 0.05 µM, partner dose 5 µM)",19.6%
3,"NC(=O)c1ccc(N(C(N)=O)c2c(F)cccc2F)nc1-c1ccc(F)cc1F + O=C(Nc1ccccc1)c1cc([N+](=O)[O-])ccc1Cl [GW9662] (first compound 2 µM, partner dose 10 µM)",51.7%
4,"CCCCCCCCc1ccc(CCC(N)(CO)CO)cc1 [fingolimod] + N#Cc1c(O)c2c(-c3ccc(-c4ccccc4O)cc3)csc2[nH]c1=O [A769662] (first compound 10 µM, partner dose 10 µM)",0.261%
5,"CCCCCCCCc1ccc(CCC(N)(CO)CO)cc1 [fingolimod] + CC(C)CCN1c2nc(Nc3cc(F)c(O)c(F)c3)ncc2N(C)C(=O)C1C [BID1870] (first compound 10 µM, partner dose 1 µM)",37%
6,"NC(=O)c1ccc(N(C(N)=O)c2c(F)cccc2F)nc1-c1ccc(F)cc1F + N#Cc1c(O)c2c(-c3ccc(-c4ccccc4O)cc3)csc2[nH]c1=O [A769662] (first compound 2 µM, partner dose 10 µM)",87.2%
